According to publication PMC4336329 (PLoS ONE, 2015):
Hit rate of the full screen: of about 310,000 compounds, about 14,000 (4.5%) showed an effect of 50% or more. Effects have a minus sign here. Some of the results follow.

target: human ether-à-go-go-related gene (hERG) potassium channel (human, UniProt Q12809); test: primary screen, population patch clamp on CHO cells stably expressing hERG
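Note: peak tail current of the secondary pulse compared with the same well before compound.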

human ether-à-go-go-related gene (hERG) potassium channel, sequence (Q12809 whole entry, looked up): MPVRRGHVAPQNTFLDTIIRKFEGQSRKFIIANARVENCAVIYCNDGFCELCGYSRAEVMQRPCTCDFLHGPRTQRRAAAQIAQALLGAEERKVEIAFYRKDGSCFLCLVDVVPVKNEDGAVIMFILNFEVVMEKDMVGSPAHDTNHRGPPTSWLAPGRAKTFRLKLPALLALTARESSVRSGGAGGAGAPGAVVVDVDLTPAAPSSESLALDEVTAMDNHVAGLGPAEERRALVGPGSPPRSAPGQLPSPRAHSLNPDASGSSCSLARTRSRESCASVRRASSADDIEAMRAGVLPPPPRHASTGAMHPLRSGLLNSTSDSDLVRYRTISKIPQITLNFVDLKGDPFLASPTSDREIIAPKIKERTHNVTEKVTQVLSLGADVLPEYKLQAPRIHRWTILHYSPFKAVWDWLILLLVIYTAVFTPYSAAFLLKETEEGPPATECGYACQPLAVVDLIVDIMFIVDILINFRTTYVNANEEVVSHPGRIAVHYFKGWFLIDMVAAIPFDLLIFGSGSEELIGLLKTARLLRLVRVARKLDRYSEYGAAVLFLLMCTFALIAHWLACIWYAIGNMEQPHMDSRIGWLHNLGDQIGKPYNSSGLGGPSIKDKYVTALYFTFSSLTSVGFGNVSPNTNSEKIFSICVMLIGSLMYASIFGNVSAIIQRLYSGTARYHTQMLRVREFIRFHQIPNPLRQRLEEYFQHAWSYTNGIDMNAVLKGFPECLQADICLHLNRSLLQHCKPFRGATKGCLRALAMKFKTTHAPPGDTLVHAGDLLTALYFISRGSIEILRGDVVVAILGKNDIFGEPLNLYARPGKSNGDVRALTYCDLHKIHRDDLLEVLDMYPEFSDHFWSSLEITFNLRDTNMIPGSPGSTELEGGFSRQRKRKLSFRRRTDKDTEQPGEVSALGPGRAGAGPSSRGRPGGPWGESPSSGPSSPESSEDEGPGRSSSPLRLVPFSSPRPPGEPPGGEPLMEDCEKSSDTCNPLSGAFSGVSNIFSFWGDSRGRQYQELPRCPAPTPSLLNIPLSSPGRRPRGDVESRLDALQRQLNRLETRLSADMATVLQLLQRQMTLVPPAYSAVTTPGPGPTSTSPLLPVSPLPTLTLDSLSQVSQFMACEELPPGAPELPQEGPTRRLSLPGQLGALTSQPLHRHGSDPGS

| Compound | hERG current change (%, negative = inhibition) at 10uM [%] |
| --- | --- |
| CCOc1cc(CO)c(Br)cc1OCC(=O)O | 2.88 |
| CCCOC(=O)COC(=O)c1ccccc1NC(=O)c1ccccc1 | 13 |
| Cc1ccc(C(C)NC(=O)Cn2nc(C)c([N+](=O)[O-])c2C)cc1 (stereo not drawn) | -6.81 |
| CC1(C)CC(=O)C2=C(C1)N(CC1CCCO1)C(=O)C2(O)C(F)(F)F (stereo not drawn) | 1.53 |
| N#Cc1nc(COc2ccccc2)oc1N1CCCCC1 | -21.4 |
| NS(=O)(=O)c1ccc(CCNC(=O)CN2CCCCCC2)cc1 | 7.39 |
| O=C(c1cc2ccccc2oc1=O)N1CCN(S(=O)(=O)c2ccccc2)CC1 | -20.2 |
| COc1cc(C(=O)NCc2nnc(SCC(=O)N3CCc4ccccc43)o2)cc(OC)c1OC | -0.961 |
| C(=C/c1ccnc2nc(SC/C=C/c3ccccc3)nn12)/c1ccccc1 | -2.97 |
| Cc1cccc(OCCOC(=O)CN2C(=O)NC3(CCCC3)C2=O)c1 | 7.38 |
| O=C(Nc1cccnc1)NC1CCCCC1 | 19.1 |
| Cc1cc(C(=O)Nc2cc(S(C)(=O)=O)ccc2Cl)no1 | -22.2 |
| CCOC(=O)C1=C(NC(=S)NC(=O)c2ccccc2)c2ccccc2CC1C(C)C (stereo not drawn) | 17 |
| Cc1ccc(-c2nnc(SCCC(=O)N3CCOCC3)o2)cc1 | 19.4 |
| COc1cc(/C=N/NC(=O)c2ccc(=O)[nH]n2)ccc1O | -1.17 |
| Cc1noc(C(=O)Nc2ccc(Cl)cc2)c1Cl | 15.7 |
| CCOC(=O)NCCOC(=O)Nc1ccc(Cl)cc1 | -8.67 |
| CCOC(=O)c1ccc(-c2c(C(=O)OCC)oc3cc(O)c(CC)cc3c2=O)o1 | -1.47 |
| C=CCN=c1scc(-c2ccccc2)n1/N=C/c1ccccn1 | -0.821 |
| O=CN1CCN(S(=O)(=O)c2ccc(S(=O)(=O)NC3CCCCC3)cc2)CC1 | -4.61 |
| O=C(Nc1ccccc1)c1cccc(N2C(=O)C3C4CC(C(Br)C4Br)C3C2=O)c1 (stereo not drawn) | 15.7 |
| CCCCc1nc(NCCN2CCOCC2)c(C#N)c2c1COC(C)(C)C2 | -12.3 |
| O=C(COc1ccc(Cl)cc1)NC1CCSC1=O (stereo not drawn) | -16.8 |

| Compound | hERG current change (%, negative = inhibition) at 10uM [%] |
| --- | --- |
| Cc1ccc(NC(=O)CN(c2ccc(Cl)cc2)S(=O)(=O)c2cc([N+](=O)[O-])ccc2Cl)c(C)c1 | 12.6 |
| Cc1cc(/C=C(\C#N)C(=O)Nc2ccccc2)c(C)n1-c1ccc(C(=O)O)cc1 | -1.99 |
| CC(=O)NC1(c2cccc(F)c2)CCN(CC(=O)NC2CCCCC2)CC1 | 8.06 |
| COc1ccc(/C=C/C(=O)NNC(=O)c2ccncc2)c(OC)c1 | -2.26 |
| O=C(CSc1nnc2sc3ccccc3n12)NCc1ccco1 | 13.6 |
| N#CCC(=O)Nc1ncn(Cc2ccccc2Cl)n1 | 15.4 |
| Cc1cccc(C)c1Nc1nnc(SCC(=O)NCc2cccs2)s1 | -9.12 |
| COCCn1cnnc1SCC(=O)c1ccc(S(=O)(=O)N2CCCC2)cc1 | 5.59 |
| COc1cc2c3nnc(-c4ccc(F)cc4)c-3cn(Cc3ccccc3)c2cc1OC | -37.1 |
| CCn1c(Cl)c(C=O)s/c1=N\S(=O)(=O)c1ccccc1 | -5.66 |
| COC1c2ccccc2C(=O)N1Cc1ccc(F)cc1 (stereo not drawn) | 5.48 |
| NC(=O)C(c1ccccc1)C1CCCCC1 (stereo not drawn) | 0.152 |
| COc1cc(OC)cc(C(=O)OCc2cc3ccccc3[nH]c2=O)c1 | 1.97 |
| CC(=O)c1ccc(NC(=O)COC(=O)c2c3c(nc4ccccc24)/C(=C\c2cccs2)CCC3)cc1 | 7.62 |
| Cc1ccccc1CSc1nncn1N | 3.3 |
| CC(C)N(Cc1nc(-c2ccccc2)no1)C(=O)c1ccc([N+](=O)[O-])cc1 | -30.1 |
| CC(NCC1(N2CCOCC2)CCCCC1)C(=O)N1CCc2ccccc21.O=C(O)C(=O)O (stereo not drawn) | -5.73 |
| COc1ccccc1-n1c(C)cc(C=O)c1C | 8.5 |
| COc1cc(/C=C(\NC(=O)c2ccccc2)C(=O)NCC(=O)O)c([N+](=O)[O-])cc1OC | 13.1 |
| COC(=O)c1ccc(NC(=O)c2cc(Cl)ccc2OC)cc1 | 19.8 |
| Cc1c(NC(=O)c2cccnc2)c(=O)n(-c2ccccc2)n1C | 17.2 |
| Cc1ccc(-c2nc(Cl)nc3ccccc23)cc1 | 10.3 |
